Source: US20140093592A1, “[…] THE TREATMENT OF TREATMENT-[…] TREATMENT-RESISTANT DEPRESSION” (Janssen Pharmaceutica NV, priority 2012, published 2014)

Key:
NMDA receptor = conditions: S-enantiomer, compared with ketamine; cited from earlier work
[1] = test system: adult subjects with treatment-resistant depression (TRD); experiment: Phase 2a clinical study of i.v. esketamine in TRD: MADRS total score; conditions: for Effect size (MADRS change) vs placebo: day 1 to day 2; for Remission rate: by day 7 (DB phase); for Proportion of responders (MADRS reduction >50% vs baseline): on day 4

Compound: CN[C@]1(c2ccccc2Cl)CCCCC1=O.Cl [Esketamine, (S)-2-(2-chlorophenyl)-2-(methylamino)cyclohexanone hydrochloride]
- Potency or affinity for the NMDA receptor (in words) (NMDA receptor): higher potency or affinity
- Non-responders to 0.2 mg/kg that responded to 0.4 mg/kg ([1]; 0.2 mg/kg Day 1, 0.4 mg/kg Day 4, hydrochloride): 2 of 3 and Two out of 3
- Effect size (MADRS change) vs placebo ([1]; 0.2 mg/kg vs placebo): −1.54
- Remission rate ([1]; 0.2 mg/kg): 33.3%
- Proportion of responders (MADRS reduction >50% vs baseline) ([1]; 0.2 mg/kg): 66.7%
- Effect size (MADRS change) vs placebo ([1]; 0.4 mg/kg vs placebo): −1.70
- Remission rate ([1]; 0.4 mg/kg): 27.3%
- Proportion of responders (MADRS reduction >50% vs baseline) ([1]; 0.4 mg/kg): 63.6%
